The BET-seq Pho4 binding data (Le et al. 2018)
The list shows a part of the results. Values were computed here from the reads of four pooled replicates and scatter widely.

molecular target: T1, Pho4 (S. cerevisiae) (UniProt P07270); test: relative binding free energy (BET-seq); higher = weaker binding; conditions: reference: library average
T1 sequence: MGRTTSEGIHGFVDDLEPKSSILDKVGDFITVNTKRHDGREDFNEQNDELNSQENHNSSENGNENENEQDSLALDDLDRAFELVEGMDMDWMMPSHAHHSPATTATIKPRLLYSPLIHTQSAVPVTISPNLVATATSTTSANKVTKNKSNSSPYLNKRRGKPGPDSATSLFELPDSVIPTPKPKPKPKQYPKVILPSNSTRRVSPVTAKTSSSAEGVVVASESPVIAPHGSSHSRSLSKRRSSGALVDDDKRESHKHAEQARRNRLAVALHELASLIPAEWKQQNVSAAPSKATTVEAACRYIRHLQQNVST

Sequence	relative binding free energy [kcal/mol]
AGGTTCACGTGTGGAC	0.37
AATTTCACGTGGTTAG	0.21
GTAGCCACGTGTTATG	0.07
ATGGGCACGTGCGAGA	-0.19
AGGAGCACGTGGTAGC	-0.02
GTTTTCACGTGTCATG	0.21
ATTGGCACGTGGTCAT	-0.22
GTGTCCACGTGGGCTG	-0.15
GGGTCCACGTGGGTAG	-0.17
TATGTCACGTGGGGGG	0.02
GAGCTCACGTGTAAGG	0.43
TATAGCACGTGTGTTA	-0.15
GGAGGCACGTGTGTCG	-0.07
ATGGACACGTGGGAGA	-0.09
GGCGGCACGTGAAGTG	0.29
TGTCACACGTGATATG	0.26
TTGTTCACGTGACGTT	0.36
CTGGTCACGTGTGTGA	0.09
ACAAGCACGTGGTGTT	-0.27
AGTTGCACGTGTAGGA	-0.07
CGGTTCACGTGTAGTA	0.39
TCTTGCACGTGTGGCG	0.02
CATATCACGTGGGGGA	0
ATAGGCACGTGAGATA	0
TGAGGCACGTGTGGCG	0.05
TTAAACACGTGTTTTA	-0.1

Sequence	relative binding free energy [kcal/mol]
GTTGGCACGTGATAGG	0
ATAATCACGTGATATT	0.21
TTGGGCACGTGAGTTA	0.14
CTGGACACGTGAGGGC	0.24
TGTAACACGTGCGGTT	-0.08
ATCGTCACGTGGGCGG	0.02
TAAATCACGTGTCTTT	0.21
TTTAGCACGTGGGTCG	-0.13
TCGGGCACGTGGGGCT	-0.29
AGCAGCACGTGTGGTT	-0.14
AGATTCACGTGTGGGT	0.38
TTAATCACGTGTGGTA	0.12
ATTTGCACGTGAGACT	0.11
AGTTTCACGTGTGCTT	0.37
CGGTGCACGTGGGAAG	-0.03
GAATTCACGTGTTTAT	0.33
GAAGGCACGTGGGAGA	-0.09
TAGCGCACGTGGTGGG	-0.14
GATGCCACGTGTGTAT	0.09
GTGAGCACGTGTGGCG	-0.07
ATCTGCACGTGAATGG	0.33
TGTTTCACGTGAGTAG	0.49
GGTGACACGTGTTGAT	0.1
TGGCTCACGTGTGAGT	0.3
AGGGTCACGTGGGCCT	-0.01
TGACGCACGTGGACGT	0

Sequence	relative binding free energy [kcal/mol]
TATAACACGTGGGTGC	-0.06
TTGTGCACGTGGCAAT	-0.16
CGTGTCACGTGAGGGG	0.21
TTTTTCACGTGGATTA	0.31
GAGGTCACGTGTTCGT	0.18
TGAGTCACGTGCAGGT	0.11
GATTTCACGTGGGGGG	0.24
CGGTTCACGTGGTGTT	0.22
GGTTTCACGTGGTTGA	0.28
CGGTGCACGTGCGAGG	-0.09
GAGCGCACGTGAGGGG	0.01
TAGTACACGTGGATTG	-0.01
TGCATCACGTGGAGTT	0.23
TTCCTCACGTGGTGGT	0.12
AAAGTCACGTGTGCGA	0.2
ACGAGCACGTGGGTGT	-0.24
TTATGCACGTGTTAGG	-0.11
CTGTCCACGTGTTTTT	0.2
TTTGGCACGTGAATAT	0.23
GGTTGCACGTGCCGTA	0.08
AGACGCACGTGATGTT	0.16
CTTTGCACGTGATAGG	-0.06
GGCTTCACGTGACGGG	0.42
TTCGGCACGTGTTGAT	0.07
TGTGGCACGTGACCGT	-0.15
TTTGGCACGTGGGCAC	-0.15

Sequence	relative binding free energy [kcal/mol]
TTAGACACGTGGTTCG	0
TTGTTCACGTGTGCTA	0.29
CTAGGCACGTGAGTGT	0.11
TGTTACACGTGGTGAC	0.11
TCGGTCACGTGATGAT	0.31
AGGGTCACGTGTTTTG	0.05
AATAGCACGTGTTGCG	-0.16
GGTGTCACGTGGGGGC	0.03
TAGTACACGTGTAAGG	0.17
CTTTGCACGTGGAGAG	-0.05
GTATACACGTGTACGG	0.15
TTTGTCACGTGTATGT	0.04
ACCGTCACGTGGGGGA	0.07
GTAGTCACGTGATGGC	0.18
GGACTCACGTGTGAGG	0.16
GATTACACGTGTTAAT	0.17
TACTGCACGTGGTGGG	-0.04
TTGTTCACGTGTAACT	0.35
CACGTCACGTGGGGGA	-0.05
GTGTGCACGTGATAGT	0.24
TGGAGCACGTGTGTAA	-0.01
GGGGCCACGTGTTGCG	-0.06
CGGGCCACGTGGGTAA	-0.17
GAAATCACGTGTTATT	0.17
TAGTCCACGTGTATTT	0.2
ATTTACACGTGTAGGG	0.24

Sequence	relative binding free energy [kcal/mol]
TAACTCACGTGTTAGG	0.21
GGTGCCACGTGAGTGG	0.15
TTTGTCACGTGTTCTT	0.11
CGAGTCACGTGGGGGC	-0.05
GAGATCACGTGTTGGA	0.25
GATGACACGTGAATGT	0.27
TTATACACGTGCGGGT	0.01
TGAATCACGTGAGGTC	0.35
TAGGTCACGTGAGTTC	0.25
CTAGGCACGTGCTGTG	-0.23
GCTTACACGTGTTTTG	0.18
GTGGACACGTGACGGG	0.2
GTTTCCACGTGGGTTG	-0.01
GTTCGCACGTGTAGTT	0.12
ACGTGCACGTGGAAGG	0
GGGTCCACGTGGGGAT	-0.21
GGTTTCACGTGAGGTA	0.39
TATTTCACGTGCGATT	0.34
TTTATCACGTGTAAGT	0.22
TTATACACGTGATGTG	0.08
TATCGCACGTGGGGTG	-0.1
CAGGGCACGTGGGTTG	-0.23
TAAGTCACGTGAGCTG	0.21
ACGGTCACGTGGGGAA	-0.07
GTAGTCACGTGCGGGA	-0.01
CTTTACACGTGGTGTT	-0.02

Sequence	relative binding free energy [kcal/mol]
ATGCGCACGTGTGAGA	-0.03
GGGGTCACGTGGACGT	0.18
TGGGTCACGTGTCTAT	0
TTTGGCACGTGTTATT	-0.11
AGTTGCACGTGATTAA	0.15
TGTAGCACGTGAGTCG	0.12
TTGTGCACGTGCGGCT	-0.05
TTCGACACGTGGGCTG	-0.15
CTCTACACGTGTTGGT	0.15
GGGCGCACGTGGCGGT	-0.12
TCTAGCACGTGTATGG	-0.07
GTGGTCACGTGCGTGG	0.13
TTGATCACGTGATATG	0.4
AGGGGCACGTGATACG	-0.09
GTTGACACGTGAGCTT	0.19
GGTGCCACGTGCGTAG	-0.01
TTTATCACGTGGAGTC	0.2
GTCTTCACGTGGGGTG	0.21
TTAGACACGTGTGCAG	-0.02
CTGGGCACGTGGTGGG	-0.12
AAGTTCACGTGATAGT	0.43
CGTATCACGTGGGGAG	-0.13
GTTGACACGTGTGCGT	0.13
TGTTACACGTGTGGTA	0.08
ATAATCACGTGATGTG	0.22
AGTTGCACGTGGAACT	0.12

Sequence	relative binding free energy [kcal/mol]
GTGATCACGTGTGACG	0.4
GCGAGCACGTGGTGGA	-0.07
TTAACCACGTGTTGTA	0.02
AATGGCACGTGGAATG	0.09
AGAGTCACGTGAGATT	0.44
TTTGTCACGTGTTAAG	0.17
ATGGTCACGTGATAAA	0.24
CTTCTCACGTGGTGGT	0.17
TTATACACGTGTTTAA	-0.1
TAGGTCACGTGTACGG	0
ATGTTCACGTGTGTGT	0.31
ATAAACACGTGTCGTG	0.06
GATTTCACGTGAGTTT	0.49
GCGGTCACGTGGGTCG	0.03
GAAGACACGTGGTGTT	-0.05
AGAAACACGTGAGTGG	0.23
GTTGTCACGTGCATAG	0.27
ATCAGCACGTGCGGTG	-0.12
TATTCCACGTGATGGG	0.06
TAAGTCACGTGTTGGA	0.14
GTTATCACGTGAGGGA	0.19
TCTGGCACGTGTGCGA	0.03
AGTAACACGTGGGTTA	-0.12
AGTATCACGTGAACGG	0.25
TGTGTCACGTGAGGGC	0.3
ACTGACACGTGTGTTG	-0.04

Sequence	relative binding free energy [kcal/mol]
AGGGGCACGTGAGGCG	0.07
TAGGTCACGTGGGATC	0.07
TGTGCCACGTGGGCTA	-0.35
GTTAGCACGTGGTGCA	-0.04
TAGCGCACGTGGGGAG	-0.2
CGTAGCACGTGGGGTA	-0.23
CCGGTCACGTGGGTAA	0.05
TAGAGCACGTGGGTAG	-0.17
GGTTCCACGTGTCGGG	0.16
AGGTTCACGTGCTGGC	0.24
GATTACACGTGTTTTA	0.1
AGGGTCACGTGTGGGT	0.13
TGTTACACGTGTGACG	0.09
CTTAACACGTGATGTG	0.22
CATTTCACGTGGGTTT	0.21
TTATGCACGTGCGATA	0.01
TGCAACACGTGTATGG	-0.06
CGTGGCACGTGGGGAC	-0.32
AGTGTCACGTGATAGT	0.34
CGTGTCACGTGGAGTG	0.1
AGGGGCACGTGCCGTT	-0.19
TATAGCACGTGATTGT	0.22
TTGCACACGTGAGGTT	0.16
TCATGCACGTGTGAGT	-0.05
AACTTCACGTGGGGTA	0.01
ATAATCACGTGAAGGT	0.28

Sequence	relative binding free energy [kcal/mol]
GTACGCACGTGTGGAG	-0.11
TGGACCACGTGGTGTA	-0.17
AGATGCACGTGACTGT	0.23
GGGAGCACGTGTATTC	0.13
ATTATCACGTGTAATA	0.18
AGGTTCACGTGCTGTA	0.15
TATTGCACGTGACGTT	-0.01
CTTGTCACGTGGTGTA	-0.02
TTGGGCACGTGGTGAA	-0.11
GGGGGCACGTGAGTGT	0.26
CTTTTCACGTGGTTGC	0.35
ATTGGCACGTGCTTGG	-0.08
TTGAACACGTGTGTCT	0.04
GTGACCACGTGGTATG	-0.11
ATATGCACGTGCGGTA	-0.04
ACGTGCACGTGGATTT	-0.05
AGGGCCACGTGACGTG	-0.08
TTTGGCACGTGAGAAT	0.08
CGTAACACGTGGTGAA	0.05
CTTGGCACGTGGCATG	-0.25
GGAATCACGTGGGTAG	0.06
TACTGCACGTGGTTGC	-0.04
